From the supplement of paper PMC7826260
Some of the results follow. Each Rep nickase domain was tested in vitro on the same pool of single strands (1 h at 37 °C, 3 µM enzyme); the outer parts of the 90-letter strands are left off. Numbers give uncut DNA relative to the enzyme-free pool, as log2; uncut sequences lie near 0, cut ones below; no hit call is given. Shares of all reads are compared, so uncut sequences can rise above 0 when many others are cut.

Experiments:
Assay in all cases: uncleaved DNA left, log2 of reads against the no-enzyme library (log2 ratio); higher = less cleavage (more negative = more Rep cleavage of the k-mer); sequences stand for … in CTCGTCCG…ACCGGAGA
[1] = system: T1, Rep nickase domain of Muscovy duck circovirus
T1 sequence (protein, residues 1-111, tag omitted): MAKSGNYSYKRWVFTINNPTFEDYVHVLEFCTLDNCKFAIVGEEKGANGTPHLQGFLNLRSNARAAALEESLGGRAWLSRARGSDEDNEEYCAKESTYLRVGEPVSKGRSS
Experimental: (§1)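 A pool of 90-nt single-stranded DNAs with seven random bases just before the constant AC of the nick site (name = the seven bases) was cut by 3 µM recombinant His6-SUMO-tagged Rep nickase domain (300 nM DNA, 50 mM HEPES pH 8.0, 50 mM NaCl, 1 mM MnCl2, 1 h, 37 °C, three replicates). Uncut DNA was amplified and sequenced.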

[2] = system: T2, Rep nickase domain of banana bunchy top virus
T2 sequence (protein, residues 1-94, tag omitted): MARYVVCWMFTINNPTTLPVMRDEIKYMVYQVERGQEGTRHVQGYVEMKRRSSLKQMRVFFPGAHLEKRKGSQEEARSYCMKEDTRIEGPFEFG
Experimental: as §1

[3] = system: T3, Rep nickase domain of cabbage leaf curl virus
T3 sequence (protein, residues 1-116, tag omitted): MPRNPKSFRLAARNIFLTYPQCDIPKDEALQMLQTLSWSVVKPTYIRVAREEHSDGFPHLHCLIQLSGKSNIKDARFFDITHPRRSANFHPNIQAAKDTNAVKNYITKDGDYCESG
Experimental: as §1

[4] = system: T4, Rep nickase domain of chickpea chlorotic dwarf virus
T4 sequence (protein, residues 1-124, tag omitted): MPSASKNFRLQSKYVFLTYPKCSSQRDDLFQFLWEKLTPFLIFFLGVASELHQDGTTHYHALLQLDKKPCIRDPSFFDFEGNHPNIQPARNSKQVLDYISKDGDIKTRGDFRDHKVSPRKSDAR
Experimental: as §1

[5] = system: T5, Rep nickase domain of faba bean necrotic yellows virus
T5 sequence (protein, residues 1-98, tag omitted): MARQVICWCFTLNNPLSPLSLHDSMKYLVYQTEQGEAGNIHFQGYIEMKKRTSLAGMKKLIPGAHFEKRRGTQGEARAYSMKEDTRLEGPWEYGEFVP
Experimental: as §1

[6] = system: T6, Rep nickase domain of maize striate mosaic virus
T6 sequence (protein, residues 1-117, tag omitted): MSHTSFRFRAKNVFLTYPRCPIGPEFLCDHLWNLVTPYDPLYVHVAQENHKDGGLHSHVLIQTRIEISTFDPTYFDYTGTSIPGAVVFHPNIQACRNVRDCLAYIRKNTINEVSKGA
Experimental: as §1

[7] = system: T7, Rep nickase domain of porcine circovirus 2
T7 sequence (protein, residues 2-116, tag omitted): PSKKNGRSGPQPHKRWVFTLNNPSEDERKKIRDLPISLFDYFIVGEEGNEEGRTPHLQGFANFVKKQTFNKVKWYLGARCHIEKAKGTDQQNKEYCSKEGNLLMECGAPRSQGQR
Experimental: as §1

[8] = system: T8, Rep nickase domain of tomato golden mosaic virus
T8 sequence (protein, residues 1-124, tag omitted): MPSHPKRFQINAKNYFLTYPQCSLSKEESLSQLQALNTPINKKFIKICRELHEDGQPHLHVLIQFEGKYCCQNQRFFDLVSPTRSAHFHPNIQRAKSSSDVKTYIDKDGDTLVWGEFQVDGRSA
Experimental: as §1

[9] = system: T9, Rep nickase domain of tomato yellow leaf curl virus
T9 sequence (protein, residues 1-136, tag omitted): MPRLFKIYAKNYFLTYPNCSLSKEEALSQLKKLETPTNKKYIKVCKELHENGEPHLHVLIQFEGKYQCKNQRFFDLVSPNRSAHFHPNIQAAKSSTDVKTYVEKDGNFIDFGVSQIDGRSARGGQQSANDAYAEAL
Experimental: as §1

[10] = system: T10, Rep nickase domain of wheat dwarf virus
T10 sequence (protein, residues 1-137, tag omitted): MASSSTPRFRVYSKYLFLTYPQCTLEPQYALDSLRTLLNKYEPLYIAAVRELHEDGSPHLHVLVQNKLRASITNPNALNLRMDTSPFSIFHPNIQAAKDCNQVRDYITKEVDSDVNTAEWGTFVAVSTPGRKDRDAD
Experimental: as §1

Sequence	uncleaved DNA left (log2) [1]	uncleaved DNA left (log2) [2]	uncleaved DNA left (log2) [3]	uncleaved DNA left (log2) [4]	uncleaved DNA left (log2) [5]	uncleaved DNA left (log2) [6]	uncleaved DNA left (log2) [7]	uncleaved DNA left (log2) [8]	uncleaved DNA left (log2) [9]	uncleaved DNA left (log2) [10]
CTTCTGA	-0.0012	0.0086	-0.0418	-0.182	-0.114	-0.582	-0.0534	-0.0698	0.0381	-0.0483
TCTTTAT	-0.175	-0.106	0.142	-0.676	0.0638	-0.323	-1.6	0.0598	0.129	-0.0786
AAAGAAT	0.118	0.0267	0.21	1.25	0.0303	1.64	0.207	0.286	-0.0502	0.13
TCTACGT	0.0668	-0.0322	0.379	-0.286	0.0325	0.414	0.00988	-0.00878	-0.0582	0.0523
ATTTGCT	-0.604	-0.403	-0.795	-0.952	-0.0183	-1.03	-1.27	-0.0869	0.0251	-0.212
TTCCCAT	-0.0437	0.068	0.281	-0.406	-0.00863	-0.167	-0.244	-0.19	0.115	0.0558
TTCTAAA	-0.0168	0.0132	0.14	-0.0146	0.077	0.123	-0.0599	0.051	-0.0189	0.0292
ATGTTCA	0.0657	-0.00323	-0.0374	-1.18	0.137	-0.569	-0.461	0.0571	0.0516	-0.0045
AGCTGTG	-0.0215	0.0419	-0.373	-0.169	0.0597	-0.526	0.0859	-0.00304	-0.0148	-0.036
GGGGCCC	-0.126	0.0737	0.83	1.81	-0.00318	2.16	0.179	-0.0742	0.00156	0.0251
GGTGCAA	0.038	0.171	0.543	1.56	-0.047	2.04	0.126	0.0627	0.102	0.12
GATGGGC	0.0803	0.0907	0.599	1.12	-0.0676	1.17	0.288	-0.00843	0.0371	0.0334
GACTATT	-2.58	-2.55	-1.16	-2.31	-1.04	1.16	-3.05	-0.557	0.0295	-0.0866
GAGCCAC	0.114	0.0799	0.227	0.757	-0.0437	0.794	0.0227	-0.0782	-0.0417	0.0334
CGGTAGA	-0.0904	-0.00785	-0.0519	0.222	-0.0345	-0.385	-0.0633	-0.0198	-0.0478	-0.0912
